Hit rate of the full screen: of about 150,000 compounds, about 540 (0.36%) showed an effect of 50% or more. The list shows a part of the results.
test system: Plasmodium falciparum; assay: Primary screen in NF54 nanoGlo assay, in single point, at 2uM, 72h; a lower Z score goes with more inhibition; format: functional, Erythrocyte; conditions: timepoint 72 hour

| SMILES | % Inhibition [%] | Z score |
| --- | --- | --- |
| CC(=O)N1CC(C)(C)c2cc(S(=O)(=O)N[C@H]3CCCc4ccccc43)ccc21 | -1 | 0.13 |
| O=S(=O)(Nc1cccc2cccnc12)N1CCOCC1 | -4 | 0.44 |
| COc1ccc2c(c1)CN(C(=O)C1(C#N)CCCCC1)CC2 | -9 | 0.85 |
| CCn1cc(NS(=O)(=O)Cc2ccc(C)c(F)c2)c(C(N)=O)n1 | -9 | 1.26 |
| COCC1(NC(=O)CCC(=O)Nc2nncs2)CCCC1 | -12 | 1.59 |
| O=C(NCc1nc2ncccn2n1)N[C@H]1CCO[C@@H]1c1ccnn1CC1CC1 | 6 | -1.16 |
| CC(C)NC(=O)c1ccnc(-c2ccccc2N(C)C)c1 | -2 | 0.32 |
| Cc1ncc(-c2c(-c3ccccc3)ncn2Cc2noc(C3CC3)n2)s1 | -11 | 1.42 |
| C=CCOc1cccc2c1cc(C(=O)N1CCN(Cc3ccccc3)CC1)n2Cc1ccccc1 | -11 | 1.2 |
| COc1ccc(CN(Cc2ccco2)C(=O)NC(C)C)cc1OS(C)(=O)=O | -5 | 0.58 |
| Cn1cccc(C(=O)Nc2cnoc2)c1=O | -7 | 1.16 |
| O=S(=O)(c1ccc(-c2cc(C(F)(F)F)n[nH]2)s1)N1CCc2ccccc2C1 | -2 | 0.3 |
| O=C1CC[C@@]2(CCCO2)CCN1Cc1ccc(C(F)(F)F)cc1 | -3 | 0.47 |
| O=C(N[C@@H]1COCC[C@@H]1OCc1cscn1)c1ccn2cnnc2c1 | 5 | -0.59 |
| O=C1CC[C@H](NC2(c3cccc(Cl)c3)CC2)CCN1 | -3 | 0.54 |
| OC[C@H]1CCc2nnc(C(F)F)n2C1 | 36 | -1.05 |
| CCCS(=O)(=O)c1c(S(=O)(=O)CCC)c2cc(-c3ccncc3)ccn2c1C(=O)c1ccc(C)cc1 | -1 | 0.11 |
| Cc1nc2c(F)cccc2c2c1COC2 | -10 | 1.87 |
| CCC(C)N1C(=O)[C@H]2C(C(=O)Nc3ccc(OC)cc3)[C@H]3C=C[C@@]2(O3)C1C(=O)NC1CCCCC1 (stereo not given in full) | -6 | 0.91 |
| CC(C)CCNC(=O)[C@H]1CCCN(S(=O)(=O)c2ccc3c(ccn3C)c2)C1 | -15 | 2.73 |
| CCOc1ccc(-c2cc(C(=O)NCCc3ccccc3)c3c(-c4ccccc4)[nH]nc3n2)cc1 | -16 | 2.1 |
| Cc1nn(CC(F)F)cc1-c1nc([C@H]2CCC(=O)NC2)no1 | 0 | -0.04 |

| SMILES | % Inhibition [%] | Z score |
| --- | --- | --- |
| c1nc(N2CCCC2)c2nc3n(c2n1)CCCCC3 | -15 | 2.31 |
| CC(O)C1CN(c2cc(NC3CC3)ncn2)CCO1 (stereo not given) | -13 | 1.42 |
| CC(C)CCC(=O)OCc1ccccc1N(C)C | -8 | 0.71 |
| Cc1nc(COc2ccc(C(C)(C)C)cc2)nn1C | -12 | 2.25 |
| O=C1NC2CCCCC2N(C(=O)Nc2ccccc2)C1CC(=O)N1CCN(c2ccccc2)CC1 (stereo not given) | 0 | 0 |
| CCc1nc2n(n1)CCCC2NC1CCN(C(C)C)C1=O (stereo not given) | 0 | 0.01 |
| Cn1nccc1C(=O)N1CCC(Cc2ccc(CCC(=O)NCC3CC3)cc2)CC1 | -7 | 0.97 |
| COC(=O)Nc1c(Br)cnc(N2CCCCCC2)c1Br | -10 | 1.17 |
| Cc1ccc(-c2noc(Cn3c(=O)[nH]c4ccccc4c3=O)n2)cc1 | -5 | 0.56 |
| CCOC1CCCN(C(=O)C(C2CC2)N2CCCC2)C1 (stereo not given) | 3 | -0.5 |
| C=CCN(CC#Cc1ccccc1)Cc1c(C)nn(C)c1Cl | -5 | 1.03 |
| O=C(CN1CCS(=O)(=O)CC1)OCc1ccccc1Cl | -13 | 1.15 |
| CS(=O)(=O)N1CCC[C@H](CN(CC#N)c2ccccc2)C1 | -5 | 0.65 |
| O=C(NC[C@H]1CCCO1)c1cc(-c2cccc(Cl)c2)[nH]n1 | 6 | -0.88 |
| Cc1nc(CC[C@H]2CCN(C(=O)c3ccccc3)C2)no1 | -2 | 0.27 |
| CC(C)[C@H](Cc1ccc(F)cc1)NCC(=O)Nc1cccnc1 | -8 | 1.08 |
| COc1ccccc1N1CCN(C(=O)c2ccc(C)c(NC(=O)c3ccccc3)c2)CC1 | -6 | 0.88 |
| Cc1nn(C)c(C)c1CCC(=O)N(C)[C@@H](C)c1cncs1 | -13 | 1.47 |
| O=C(c1ncc(F)cc1F)N1CC[C@H]1c1ccccc1F | -8 | 0.94 |
| Cc1cccc(CN2CCC[C@@]3(CCN(Cc4cccc(C)n4)C3)C2=O)c1 | -8 | 1.03 |
| O=C(NC1CC1)c1ccc(-n2cnnn2)cc1 | -3 | 0.54 |
| Cn1c(=O)c2c(nc(CCCN3CCCCC3)n2Cc2cccc(Br)c2)n(C)c1=O | -37 | 4.35 |

| SMILES | % Inhibition [%] | Z score |
| --- | --- | --- |
| CC(=O)Nc1ccc(S(=O)(=O)Nc2cnc3c(cnn3C(C)C)c2)cc1 | -3 | 0.41 |
| CO[C@@H](C)CS(=O)(=O)Nc1c(F)cc(Cl)cc1Cl | -4 | 0.52 |
| CC1CCCCC1N1C(=O)[C@H]2C(C(=O)Nc3ccc(Cl)cc3)[C@H]3C=C[C@@]2(O3)C1C(=O)NC1CCCCC1 (stereo not given in full) | -1 | 0.23 |
| Cc1ncnc(OCC2CCN(Cc3nc4ccccc4[nH]3)CC2)c1C | -11 | 1.28 |
| O=S(=O)(c1cccc(-n2cnnn2)c1)N(CCO)CCN1CCOCC1 | -12 | 1.41 |
| Cc1nc2ncccn2c1C(=O)N1CCC(n2cc(CC(C)C)nn2)CC1 | 10 | -1.01 |
| CCc1csc(CCNC(=O)CCc2ccnn2C)n1 | -21 | 3.91 |
| CCS(=O)(=O)C1CN(C(=O)c2ccnc(N(C)C)c2)C1 | -4 | 0.77 |
| CCOC(=O)N(C)C1CCN(C2Cc3ccccc3C2O)CC1 (stereo not given) | -12 | 1.09 |
| Cc1nnc(NC[C@](C)(O)c2cccc(F)c2)nc1C | -4 | 0.86 |
| CN1CCN(c2ccccc2NS(=O)(=O)Cc2ccccc2)CC1 | -12 | 1.03 |
| COc1cccc(-c2cc3c(n2-c2ccc(C(=O)NC4CC4)cc2)CCCCC3)c1 | -5 | 0.54 |
| O=C(CN1CCc2nc(NC(=O)c3ccoc3)sc2C1)Nc1ccc(F)c(Cl)c1 | 4 | -0.5 |
| O[C@@H]1C[C@H](Nc2nccs2)C[C@@H]1O | -10 | 1.85 |
| CCn1nc(-c2ccc(C)c(S(=O)(=O)N3CCN(C)CC3)c2)c2c(c1=O)CCCC2 | -12 | 1.91 |
| COC[C@H]1CCCN1S(=O)(=O)N(C)Cc1nc(C)cs1 | -19 | 2.49 |
| CC(C)=CCO[C@H]1CCOC[C@H]1NS(C)(=O)=O | 5 | -0.79 |
| Cc1ccc(C(=O)N2CCC[C@H]2c2cnn(C)c2)cc1Oc1ccncc1 | -10 | 1.41 |
| COc1ccc(CNC(=O)C2(N3CCOCC3)CCCC2)cc1OC | 29 | -3.29 |
| Cc1ccc(NS(=O)(=O)c2c(C)sc(C)c2-c2onc(C)c2C)c(Cl)c1 | -12 | 2.09 |
| CN(C[C@@H]1OCCN(C)[C@H]1c1ccccc1)C(=O)C1CCC(O)CC1 (stereo not given in full) | -12 | 1.71 |
| Cc1cnc(C(=O)N[C@@H]2CCC[C@@H]2C(=O)N2CCCCCC2)cn1 | -9 | 1.17 |

| SMILES | % Inhibition [%] | Z score |
| --- | --- | --- |
| CN(C(=O)CCNC(=O)c1cc(F)ccc1Br)C1C2CCOC2C1(C)C (stereo not given) | -6 | 0.53 |
| O=C(N[C@H]1CCCCNC1=O)c1cc(C2CC2)nc2ccccc12 | -8 | 1.03 |
| Cc1ncsc1C(=O)N[C@H]1CCOC[C@@H]1O | -14 | 1.79 |
| Cc1nn(C)c(C)c1CN(CC(=O)Nc1cnccn1)C(C)C | 10 | -1.32 |
| O=C(CCc1c(F)cccc1Cl)N1CC(Nc2cnccn2)C1 | -6 | 0.7 |
| O=C(NCCCn1ccnc1)C1CCCCC1 | -8 | 1.09 |
| Cc1noc(C)c1C(=O)NCc1nc(-c2cc(C3CC3)on2)no1 | 12 | -1.49 |
| O=C(Nc1c2c(nn1-c1ccccc1)CS(=O)(=O)C2)[C@H]1CC(=O)N(c2ccc(F)cc2)C1 | -3 | 0.6 |
| NC(=O)[C@@H]1C[C@@H](F)CN1C(=O)c1ccc(Br)o1 | 0 | 0 |
| CC(C)(C#N)CNc1ccc(C(F)(F)F)nn1 | 2 | -0.41 |
| Cc1cc(F)ccc1-c1c(-c2ccccc2)ncn1C[C@H]1COCCO1 | 1 | -0.17 |
| C[C@@H](Cc1ccc(F)c(Br)c1)C(=O)NC1(C#N)CC1 | -19 | 2.21 |
| O=C(COc1ccccc1)NCC(=O)N1CC[C@H](C2CCOCC2)C1 | -6 | 0.99 |
| O=C(CCn1cnnn1)N1C[C@@H]2CC[C@H]1CN(c1cnccn1)C2 | -1 | 0.07 |
| O=C(Nc1ccc(Br)cc1F)N1CC2CCCC21 (stereo not given) | 1 | -0.16 |
| O=C(Nc1cnns1)N[C@@H]1C=CCCC1 | 8 | -1 |
| CCN1CCCn2cc(S(=O)(=O)Nc3ccc(C)c(C)c3)cc2C1=O | 4 | -0.53 |
| O=C(NC1CC1)[C@@H]1CN(Cc2ccc(Cl)cc2F)C[C@H]1CO | 0 | 0.04 |
| Cc1ccc(CNCc2cccnc2)c(OC[C@H]2CCOC2)c1 | -10 | 1.31 |

Source: ChEMBL document CHEMBL4888484, “Replenishing the malaria drug discovery pipeline: Screening and hit evaluation of the MMV Hit Generation Library 1 (HGL1) against asexual blood stage Plasmodium falciparum ,using a nano luciferase reporter read-out” (2022)
